According to the supplement of paper PMC4967469:
The IC50 comes from the fitted curve, where viability falls to half of the control; fits outside the tested doses are given as limits. AUC, from the same fit, is the share of area under the viability curve across the 256-fold dose range: 1 means no effect, lower means more sensitive. An inferred top dose is not printed in the source and was worked back from the curve model.

Legend:
Test in all cases: Viability of human cancer cell lines after 72 h of drug (GDSC screen)
[1] = compound: Cn1cncc1[C@@](N)(c1ccc(Cl)cc1)c1ccc2c(c1)c(-c1cccc(Cl)c1)cc(=O)n2C [Tipifarnib]; conditions: top dose 16 µM; top dose inferred
Procedure: (§1)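 Human cancer cell lines in 384-well plates, medium with 10% serum, drug for 72 h over a 256-fold dose range (nine 2-fold or five 4-fold steps up to the top dose). Adherent lines were fixed and stained with the nucleic acid dye Syto60, suspension lines read with resazurin; signal relative to control wells, capped at 0 and 100%. One two-parameter sigmoid per drug and line, fitted in a mixed model over all curves with the slope shared within a line.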

[2] = compound: CCc1cc(Nc2nccc(-c3c(-c4ccc(OC)c(C(=O)Nc5c(F)cccc5F)c4)nc4ccccn34)n2)c(OC)cc1N1CCC(N2CCN(S(C)(=O)=O)CC2)CC1 [GSK-1904529A]; conditions: top dose 1.024 µM; top dose inferred
Procedure: as §1

[3] = compound: COc1ccccc1S(=O)(=O)Nc1ccc2c(c1)CN(C)C(=O)N2 [PFI-1]; conditions: top dose 10 µM; top dose inferred
Procedure: as §1

[4] = compound: CCN1CCN(Cc2ccc(NC(=O)c3ccc(C)c(Oc4ccnc5[nH]ccc45)c3)cc2C(F)(F)F)CC1 [NG-25]; conditions: top dose 10.24 µM; top dose inferred
Procedure: as §1

| Cell Line | AUC [1] | IC50 [1] [µM] | AUC [2] | IC50 [2] [µM] | AUC [3] | IC50 [3] [µM] | AUC [4] | IC50 [4] [µM] |
| --- | --- | --- | --- | --- | --- | --- | --- | --- |
| U031 (kidney, adherent) | 0.633 | 2.36 | 0.964 | > 1.02 | 0.552 | 0.87 | 0.981 | > 10.2 |
| NCI-H1299 (large cell lung carcinoma, adherent) | 0.429 | 0.61 | 0.908 | > 1.02 | 0.893 | > 10 | 0.913 | > 10.2 |
| 647-V (bladder, adherent) | 0.562 | 1.48 | 0.981 | > 1.02 | 0.85 | 7.67 | 0.91 | > 10.2 |
| BFTC-909 (kidney, adherent) | 0.731 | 4.45 | 0.988 | > 1.02 | 0.901 | > 10 | 0.977 | > 10.2 |
| IPC-298 (melanoma, adherent) | 0.751 | 5.18 | 0.979 | > 1.02 | 0.754 | 3.31 | 0.872 | 9.49 |
| BPH-1 (prostate, adherent) | 0.605 | 2 | 0.98 | > 1.02 | 0.684 | 2.17 | 0.867 | > 10.2 |
| HT-1197 (bladder, adherent) | 0.727 | 5.06 | 0.931 | > 1.02 | 0.846 | 9.43 | 0.983 | > 10.2 |
| SiHa (cervix, adherent) | 0.896 | > 16 | 0.987 | > 1.02 | 0.822 | 7.09 | 0.987 | > 10.2 |
| MS751 (cervix, adherent) | 0.77 | 5.64 | 0.98 | > 1.02 | 0.828 | 5.51 | 0.981 | > 10.2 |
| CAL-12T (non-small cell lung carcinoma, adherent) | 0.454 | 0.737 | 0.925 | > 1.02 | 0.897 | > 10 | 0.848 | 9.06 |
| H2869 (mesothelioma, adherent) | 0.625 | 2.41 | 0.939 | > 1.02 | 0.948 | > 10 | 0.817 | 7.52 |
| H2461 (mesothelioma, adherent) | 0.764 | 7.23 | 0.971 | > 1.02 | 0.867 | > 10 | 0.98 | > 10.2 |
| PL18 (pancreas, adherent) | 0.774 | 6.21 | 0.983 | > 1.02 | 0.986 | > 10 | 0.899 | > 10.2 |
| UACC-62 (melanoma, adherent) | 0.816 | 8.72 | 0.983 | > 1.02 | 0.689 | 2.1 | 0.981 | > 10.2 |
| HT55 (large intestine, adherent) | 0.967 | > 16 | 0.984 | > 1.02 | 0.973 | > 10 | 0.989 | > 10.2 |
| H2373 (mesothelioma, adherent) | 0.897 | > 16 | 0.983 | > 1.02 | 0.925 | > 10 | 0.907 | > 10.2 |
| KYSE-410 (oesophagus, adherent) | 0.558 | 1.45 | 0.982 | > 1.02 | 0.783 | 4.52 | 0.954 | > 10.2 |
| CAL-72 (osteosarcoma, adherent) | 0.732 | 5.25 | 0.978 | > 1.02 | 0.86 | > 10 | 0.984 | > 10.2 |
| NUGC-3 (stomach, adherent) | 0.682 | 3.47 | 0.825 | 0.716 | 0.902 | > 10 | 0.941 | > 10.2 |
| YKG-1 (glioma, adherent) | 0.377 | 0.456 | 0.987 | > 1.02 | 0.927 | > 10 | 0.922 | > 10.2 |
| CFPAC-1 (pancreas, adherent) | 0.648 | 2.74 | 0.979 | > 1.02 | 0.902 | > 10 | 0.954 | > 10.2 |

| Cell Line | AUC [1] | IC50 [1] [µM] | AUC [2] | IC50 [2] [µM] | AUC [3] | IC50 [3] [µM] | AUC [4] | IC50 [4] [µM] |
| --- | --- | --- | --- | --- | --- | --- | --- | --- |
| SW1783 (glioma, adherent) | 0.403 | 0.559 | 0.983 | > 1.02 | 0.986 | > 10 | 0.974 | > 10.2 |
| RERF-LC-MS (lung adenocarcinoma, adherent) | 0.97 | > 16 | 0.983 | > 1.02 | 0.869 | 9.64 | 0.983 | > 10.2 |
| NCI-H1623 (lung adenocarcinoma, adherent) | 0.907 | > 16 | 0.985 | > 1.02 | 0.981 | > 10 | 0.926 | > 10.2 |
| DAN-G (pancreas, adherent) | 0.963 | > 16 | 0.991 | > 1.02 | 0.967 | > 10 | 0.988 | > 10.2 |
| T98G (glioma, adherent) | 0.8 | 7.09 | 0.987 | > 1.02 | 0.945 | > 10 | 0.868 | 8.15 |
| NCI-H520 (lung squamous cell carcinoma, adherent) | 0.607 | 1.99 | 0.972 | > 1.02 | 0.968 | > 10 | 0.659 | 1.8 |
| EFM-192A (breast, adherent) | 0.411 | 0.553 | 0.909 | > 1.02 | 0.905 | > 10 | 0.952 | > 10.2 |
| PFSK-1 (medulloblastoma, adherent) | 0.894 | > 16 | 0.986 | > 1.02 | 0.787 | 4.65 | 0.953 | > 10.2 |
| RD (rhabdomyosarcoma, adherent) | 0.768 | 6.54 | 0.985 | > 1.02 | 0.843 | 8.14 | 0.845 | 8.47 |
| Hs940-T (melanoma, adherent) | 0.696 | 4.05 | 0.916 | > 1.02 | 0.919 | > 10 | 0.983 | > 10.2 |
| A427 (non-small cell lung carcinoma, adherent) | 0.384 | 0.478 | 0.986 | > 1.02 | 0.953 | > 10 | 0.873 | 9.99 |
| Hs633T (fibrosarcoma, adherent) | 0.34 | 0.395 | 0.991 | > 1.02 | 0.868 | 6.47 | 0.836 | 5.1 |
| SW948 (large intestine, adherent) | 0.975 | > 16 | 0.982 | > 1.02 | 0.979 | > 10 | 0.944 | > 10.2 |
| TGBC11TKB (stomach, adherent) | 0.973 | > 16 | 0.992 | > 1.02 | 0.969 | > 10 | 0.973 | > 10.2 |
| G-292 Clone A141B1 (osteosarcoma, adherent) | 0.837 | > 16 | 0.856 | > 1.02 | 0.972 | > 10 | 0.957 | > 10.2 |
| Hs766T (pancreas, adherent) | 0.886 | > 16 | 0.982 | > 1.02 | 0.943 | > 10 | 0.983 | > 10.2 |
| CAL-85-1 (breast, adherent) | 0.525 | 1.19 | 0.966 | > 1.02 | 0.839 | 9.86 | 0.784 | 5.71 |
| KYSE-220 (oesophagus, adherent) | 0.752 | 5.56 | 0.963 | > 1.02 | 0.982 | > 10 | 0.953 | > 10.2 |
| CAL-54 (kidney, adherent) | 0.791 | 8.32 | 0.913 | > 1.02 | 0.788 | 5.08 | 0.824 | 7.26 |
| MKN28 (stomach, adherent) | 0.49 | 0.941 | 0.966 | > 1.02 | 0.811 | 5.47 | 0.862 | 9.07 |
| RERF-LC-KJ (lung adenocarcinoma, adherent) | 0.711 | 4.03 | 0.957 | > 1.02 | 0.787 | 4.49 | 0.929 | > 10.2 |

| Cell Line | AUC [1] | IC50 [1] [µM] | AUC [2] | IC50 [2] [µM] | AUC [3] | IC50 [3] [µM] | AUC [4] | IC50 [4] [µM] |
| --- | --- | --- | --- | --- | --- | --- | --- | --- |
| ACHN (kidney, adherent) | 0.502 | 1.01 | 0.952 | > 1.02 | 0.899 | > 10 | 0.867 | > 10.2 |
| KYSE-520 (oesophagus, adherent) | 0.879 | > 16 | 0.978 | > 1.02 | 0.891 | > 10 | 0.909 | > 10.2 |
| NCI-H1568 (lung adenocarcinoma, adherent) | 0.49 | 0.934 | 0.967 | > 1.02 | 0.841 | 9.59 | 0.981 | > 10.2 |
| DoTc2-4510 (cervix, adherent) | 0.555 | 1.4 | 0.961 | > 1.02 | 0.908 | > 10 | 0.943 | > 10.2 |
| BEN (non-small cell lung carcinoma, adherent) | 0.75 | 5.9 | 0.971 | > 1.02 | 0.841 | 8.46 | 0.921 | > 10.2 |
| SU8686 (pancreas, adherent) | 0.821 | 10.7 | 0.986 | > 1.02 | 0.909 | > 10 | 0.967 | > 10.2 |
| KYM-1 (rhabdomyosarcoma, adherent) | 0.95 | > 16 | 0.991 | > 1.02 | 0.834 | 5.24 | 0.988 | > 10.2 |
| NCI-H2347 (lung adenocarcinoma, adherent) | 0.735 | 5.52 | 0.971 | > 1.02 | 0.827 | 7.93 | 0.927 | > 10.2 |
| HCC2998 (large intestine, adherent) | 0.393 | 0.512 | 0.987 | > 1.02 | 0.832 | 6.12 | 0.947 | > 10.2 |
| COLO-680N (oesophagus, adherent) | 0.603 | 2.02 | 0.98 | > 1.02 | 0.933 | > 10 | 0.986 | > 10.2 |
| NCI-H3122 (lung adenocarcinoma, adherent) | 0.201 | 0.126 | 0.951 | > 1.02 |  |  | 0.86 | 9.01 |
| MIA-PaCa-2 (pancreas, adherent) | 0.333 | 0.325 | 0.981 | > 1.02 |  |  | 0.974 | > 10.2 |
| UACC-812 (breast, adherent) | 0.983 | > 16 | 0.991 | > 1.02 |  |  | 0.871 | 9.08 |
| NCI-H647 (non-small cell lung carcinoma, adherent) | 0.905 | > 16 | 0.985 | > 1.02 |  |  | 0.795 | 5 |
| OCUM-1 (stomach, adherent) | 0.686 | 3.53 | 0.879 | > 1.02 |  |  | 0.979 | > 10.2 |
| SAT (head and neck, adherent) | 0.928 | > 16 | 0.967 | > 1.02 |  |  | 0.94 | > 10.2 |
| U-2-OS (osteosarcoma, adherent) | 0.858 | 15 | 0.964 | > 1.02 |  |  | 0.985 | > 10.2 |
| VMRC-RCW (kidney, adherent) | 0.205 | 0.146 | 0.979 | > 1.02 |  |  | 0.917 | > 10.2 |
| NCI-H1734 (lung adenocarcinoma, adherent) | 0.776 | 7.02 | 0.985 | > 1.02 |  |  | 0.899 | > 10.2 |
| SNU-475 (liver, adherent) | 0.979 | > 16 | 0.991 | > 1.02 |  |  | 0.823 | 5.14 |
